Values marked as one replicate rest on one cluster of the flow cell; about a third of the high ones do not repeat.
Tested on: ATP
Test: switch fluorescence ratio, 500 uM ATP over buffer (Cy3 cluster intensity, sum of 5 cycles each) (fold (ratio)); higher = stronger signal-on switching upon ATP binding; sequences stand for … in TCGTCGGCAGCGTCAGATGTGTATAAGAGACAGTTTTTTTTTTTTTTTTTTTTTTTTT…TC
Details: aptamer strand: ATP DNA aptamer (quencher-CACCTGGGGGAGTATTGCGGAGGAAGG + anchor), 100 nM annealed; ATP concentration: 500 uM; one replicate
Method in brief: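 For every switch-domain sequence, the fluorescence ratio is the mean of per-cluster values, each being summed target-cycle Cy3 intensity over summed buffer-cycle Cy3 intensity. Clusters outside 100-1000 RFU were excluded. On a modified Illumina MiSeq flow-cell, the Cy3-labelled switching-strand clusters were annealed to 100 nM quencher-labelled ATP aptamer, imaged in selection buffer and then after 15 min with 500 uM ATP at 22 °C. Five such cycles were run, with NaOH stripping and re-annealing between them.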
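Note: ATP exposure 15 min at 22 °C before imaging.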

Sequence | switch fluorescence ratio
ATGGGGTTGC | 0.998
CGCGTAAGGT | 1.02
GAATAGTGGA | 0.995
ATTGAATGCG | 0.979
TAGGATGTTA | 1
TACGGGCGTT | 1.02
AGCCGATAAA | 1
GATATACAA | 1.04
GCCGTCATAT | 1.01
CTGGCTAACC | 0.992
GGGCACCTAT | 0.989
CGAGAAGATT | 1.01
AGCCCCTCAA | 1.05
AGCGTGTTTG | 1.02
AGCGAACCGC | 0.99
AAGAAGGGAC | 0.968
TCATCGTGCT | 1.01
GAAACAGTCC | 1.59
CGTATTGAAG | 0.993
TTATCAGTA | 0.973
CAAATATATA | 1.01
AATGGAGACT | 1.19
TAGGTGCATG | 1.04

Sequence | switch fluorescence ratio
GTGGGCAACG | 0.999
CTAATATTTG | 1.03
AGTGAACCG | 1.06
CCACACGGGC | 1.13
GTTTAAGCTT | 1.02
GAAGT | 0.956
GATGTTTTTA | 1.03
CCATGCGCCT | 1.09
TATATAGACT | 1.01
TTCGTGAGAA | 0.958
TCTATCCGC | 2.11
TTATCACACG | 1.06
CAACCGTATG | 0.987
AATGGATCCC | 1.06
GCGGAACGCA | 0.99
CGCGAGCCGC | 0.986
AGACTGCTG | 1.04
CCGGAAAACT | 1.04
ATATAGTGCG | 0.978
ATCGACTAGG | 0.996
TTCGGATCTG | 0.985
TCTAACTCTC | 1.05
ACCTTCACTA | 1.33

Sequence | switch fluorescence ratio
CCCGGTGACC | 1.27
ATTTTACTGA | 1.04
ATTGGAGTAA | 0.945
TAGAGATTTC | 1.02
TCGGAAGTGC | 1.21
ATCAGTCGTA | 1.04
TACGACACAG | 1.1
TCAGCCACTA | 1.06
GTGGTCCCGG | 0.99
ATATCGTCAT | 0.933
AGAGTTTTCA | 0.994
TCTTCATTAC | 1.29
ATATGATGCT | 0.996
GTGTCCTGAC | 1.06
GAACGTCGGG | 0.953
CAATGCGACC | 2.74
CCTGGCTGGG | 1.02
CTGGGGAGAA | 0.996
ATGGTCATAC | 1.07
CTGCCGCCTG | 1.07
ATGTGGAAGC | 1.01
TAAATGGAG | 0.983
TTGAAAGGTT | 0.989

Sequence | switch fluorescence ratio
TTCATTGAGA | 0.995
CTAATACGAT | 1.05
AGCAAGAATG | 1.07
TCATTTCACT | 0.95
TGTGGCTGGA | 1.04
GGGTGGGCGA | 0.971
CTTATCGTCC | 1.01
ACTCTCGCGG | 1.57
CGGCGTTGTG | 1.02
GCTGCGAATG | 0.991
TGATGTAAAG | 0.972
TTAACGCGAA | 1.15
GTGTTCTTTT | 0.976
ATGAACTATT | 0.984
GATAAAAGTC | 1.04
AAAGATCGCT | 1.01
ATCACAACCT | 1.71
GTCGCAATTT | 2.18
CTTGATTGTT | 1.03
ATTCTGTTAA | 1.01
GCCATACTAA | 1.08
GTTTCATCGT | 1
CTCGTTCCAA | 1.05

Sequence | switch fluorescence ratio
GACAGGCTG | 0.883
AGGAGTCTAA | 1.01
TATAGGTAGC | 0.968
GGAATGTCGA | 0.942
GCAAGCGAGT | 1.08
CGGTAGAGCG | 0.946
AGGGCCAGGC | 1.01
GGCTCAGTGG | 1.03
TGGATGTGGA | 1
GTCTAGGGGT | 1.19
ATACGTGTCG | 1.02
TGTTCATTAG | 0.97
TTTCCTGAAG | 1.07
AGAGTCCAAT | 1
CTTGATCAGC | 1.02
GAATGGTTA | 1.03
TGGTTTATAA | 1.01
GAACATGGAT | 1.02
CACGTTGTCC | 1.01
AAGACAGCGG | 1.04
AATTGTTTAC | 0.987
TGGGATGGTC | 0.918
TTTCATCGGG | 1.05

Sequence | switch fluorescence ratio
ATATCCTTTG | 0.967
CGTCTGGAGG | 1.01
CTAATTACAT | 0.951
GTGAGAAAGC | 1.04
TCCTTGGCGC | 1.23
CAGCATCCAA | 1.06
TTGGAACCCA | 1.07
CCATGACGGG | 1.01
GTGTTTCCAT | 0.999
CTCTGTGGTA | 1.05
CCCAATCGTC | 1.18
TTATCCGACG | 1.37
GTTCGAGTGG | 1.01
CATTGTGGAG | 0.991
TAGAGCAATC | 5.71
GAACTGCAGA | 1.04
CACACTTTTG | 0.973
CGCTAAATTA | 1.03
AACTGTCGCT | 1.06
CAGGTTCTAG | 1.01
TCGGTCTCCA | 1
AAAAGGAGCG | 1
ATTGTTAGTG | 0.982

Sequence | switch fluorescence ratio
CGTGAATATT | 1.16
GAGGTAAATA | 1.09
GAACGATATG | 1.06
TGACTCACCG | 1.03
GGGGTCATGA | 0.935
ACTAGACGT | 1.18
TCGTATATGC | 1.33
GGAGGTGGAT | 1.03
TCTAAGGAAC | 0.999
CACCCATCGT | 1.04
ATGCAGTGAC | 1.11
CAATGGGTTT | 0.996
ATCCAGAGGG | 1.01
CTGGATTACT | 1.15
CTTGCAGGAA | 1.01
CATGGCACAA | 1.02
AACATGAGA | 0.982
ATTATGAGAT | 1.01
ATTGAATATA | 1.01

— the supplement of paper PMC10126150
